Experimental findings from the supplement of paper PMC7125110 are described below.

± gives the standard error. This sample is rich in variants without activity. A value given as a limit tells only on which side of the number the result lay.

B1: glmS ribozyme (parent)
chain: AUAAAAGCGCCAGAACUACAGAAAUGUAGUUGACGAGGAGGAGGUUUAUCGAAUUUUCGGCGGAUGCCUCCAAA

Holding throughout (settings): with glucosamine-6-phosphate
In data set [1] the parent is B1. As to the kind of experiment: self-cleavage kobs at 40 uM GlcN6P; higher = faster cleavage; RNA array. The method in brief:
(§1)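 Tracking of barcoded ribozyme variants used a hybridised Cy3 probe at 37 °C, after in situ transcription by E. coli RNA polymerase on sequenced MiSeq chips. The flowed solution held 40 μM to 10 mM glucosamine-6-phosphate in HEPES/KCl/Mg(OAc)2 buffer, and imaging ran over ~14 h. kobs was taken from exponential decay fits of normalised per-tile medians, and kcat and KM from weighted Michaelis–Menten fits.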

In data set [2] the parent is B1. Nature of the data set: self-cleavage kobs at 640 uM GlcN6P; higher = faster cleavage; RNA array. An outline of the steps: as §1
Data set [3] covers variants of B1. Nature of the data set: self-cleavage kobs at 160 uM GlcN6P; higher = faster cleavage; RNA array. The method in brief: as §1
In data set [4] the parent is B1. As to the kind of experiment: self-cleavage kobs at 2500 uM GlcN6P; higher = faster cleavage; RNA array. An outline of the steps: as §1
Data set [5] covers variants of B1. Nature of the data set: self-cleavage kobs at 10000 uM GlcN6P; higher = faster cleavage; RNA array. An outline of the steps: as §1

With A48G C50G C61G, the “self-cleavage kobs at 40 uM GlcN6P” value in the data set with glucosamine-6-phosphate [1] was 0.000172 ± 6.6e-05 s⁻¹.

Take U46A G66U: the “self-cleavage kobs at 40 uM GlcN6P” value with glucosamine-6-phosphate [1] is 5.04e-05 ± 2.3e-05 s⁻¹. Moreover, the “self-cleavage kobs at 640 uM GlcN6P” value in the data set with glucosamine-6-phosphate [2] worked out at 0.000412 ± 7.3e-05 s⁻¹. For the same variant, the “self-cleavage kobs at 160 uM GlcN6P” value with glucosamine-6-phosphate [3] came out at 8.12e-05 ± 1.9e-05 s⁻¹. In the data set with glucosamine-6-phosphate [4], the “self-cleavage kobs at 2500 uM GlcN6P” value amounted to 0.00111 ± 0.00027 s⁻¹. Also, the “self-cleavage kobs at 10000 uM GlcN6P” value in the data set with glucosamine-6-phosphate [5] amounted to 0.00229 ± 0.00041 s⁻¹.

Regarding G44U A48G, in the data set with glucosamine-6-phosphate [1], the “self-cleavage kobs at 40 uM GlcN6P” value is under 1e-05 s⁻¹. Moreover, the “self-cleavage kobs at 640 uM GlcN6P” value with glucosamine-6-phosphate [2] is under 1e-05 s⁻¹. Besides, the “self-cleavage kobs at 160 uM GlcN6P” value with glucosamine-6-phosphate [3] was under 1e-05 s⁻¹. For the same variant, in the data set with glucosamine-6-phosphate [4], the “self-cleavage kobs at 2500 uM GlcN6P” value is under 1e-05 s⁻¹. Further, the “self-cleavage kobs at 10000 uM GlcN6P” value in the data set with glucosamine-6-phosphate [5] is under 1e-05 s⁻¹.

For the variant U47A G59C, the “self-cleavage kobs at 40 uM GlcN6P” value with glucosamine-6-phosphate [1] was under 1e-05 s⁻¹. Further, the “self-cleavage kobs at 640 uM GlcN6P” value in the data set with glucosamine-6-phosphate [2] is under 1e-05 s⁻¹. In the data set with glucosamine-6-phosphate [3], the “self-cleavage kobs at 160 uM GlcN6P” value was under 1e-05 s⁻¹.

Take A48G C61U G66U U69G: the “self-cleavage kobs at 40 uM GlcN6P” value with glucosamine-6-phosphate [1] is under 1e-05 s⁻¹.

For U49A A53G, the “self-cleavage kobs at 40 uM GlcN6P” value in the data set with glucosamine-6-phosphate [1] was under 1e-05 s⁻¹.

On to U45C G51A, for which the “self-cleavage kobs at 40 uM GlcN6P” value in the data set with glucosamine-6-phosphate [1] was under 1e-05 s⁻¹. Besides, in the data set with glucosamine-6-phosphate [2], the “self-cleavage kobs at 640 uM GlcN6P” value was under 1e-05 s⁻¹. Also, the “self-cleavage kobs at 2500 uM GlcN6P” value with glucosamine-6-phosphate [4] was under 1e-05 s⁻¹. The “self-cleavage kobs at 10000 uM GlcN6P” value in the data set with glucosamine-6-phosphate [5] is under 1e-05 s⁻¹.

For the variant U45C C68G, the “self-cleavage kobs at 40 uM GlcN6P” value with glucosamine-6-phosphate [1] is under 1e-05 s⁻¹.

Regarding A48C U49G G62A, the “self-cleavage kobs at 40 uM GlcN6P” value in the data set with glucosamine-6-phosphate [1] is under 1e-05 s⁻¹.

On to U45G G51A U57G G62C G66C, for which the “self-cleavage kobs at 40 uM GlcN6P” value with glucosamine-6-phosphate [1] was under 1e-05 s⁻¹. The “self-cleavage kobs at 10000 uM GlcN6P” value in the data set with glucosamine-6-phosphate [5] was under 1e-05 s⁻¹.

Take A48C G51U: the “self-cleavage kobs at 40 uM GlcN6P” value with glucosamine-6-phosphate [1] was under 1e-05 s⁻¹.

For G44A U47A C71A, the “self-cleavage kobs at 40 uM GlcN6P” value with glucosamine-6-phosphate [1] is under 1e-05 s⁻¹. Also, the “self-cleavage kobs at 640 uM GlcN6P” value with glucosamine-6-phosphate [2] was under 1e-05 s⁻¹. The “self-cleavage kobs at 2500 uM GlcN6P” value with glucosamine-6-phosphate [4] was under 1e-05 s⁻¹. Moreover, in the data set with glucosamine-6-phosphate [5], the “self-cleavage kobs at 10000 uM GlcN6P” value is under 1e-05 s⁻¹.

Consider U46G A53U U69C, for which, in the data set with glucosamine-6-phosphate [1], the “self-cleavage kobs at 40 uM GlcN6P” value amounted to 7.38e-05 ± 2.7e-05 s⁻¹. The “self-cleavage kobs at 10000 uM GlcN6P” value in the data set with glucosamine-6-phosphate [5] was determined as 0.00109 ± 0.0003 s⁻¹.

U45A A64C C70G: the “self-cleavage kobs at 40 uM GlcN6P” value with glucosamine-6-phosphate [1] was under 1e-05 s⁻¹. In addition, the “self-cleavage kobs at 2500 uM GlcN6P” value with glucosamine-6-phosphate [4] is under 1e-05 s⁻¹.

U46G C68G C70G: the “self-cleavage kobs at 40 uM GlcN6P” value in the data set with glucosamine-6-phosphate [1] was under 1e-05 s⁻¹.

As to U45C U57C, the “self-cleavage kobs at 40 uM GlcN6P” value with glucosamine-6-phosphate [1] was under 1e-05 s⁻¹. The “self-cleavage kobs at 160 uM GlcN6P” value with glucosamine-6-phosphate [3] is under 1e-05 s⁻¹.

On to G44C A64G, for which the “self-cleavage kobs at 40 uM GlcN6P” value with glucosamine-6-phosphate [1] is under 1e-05 s⁻¹. In the data set with glucosamine-6-phosphate [2], the “self-cleavage kobs at 640 uM GlcN6P” value is under 1e-05 s⁻¹. In addition, the “self-cleavage kobs at 160 uM GlcN6P” value with glucosamine-6-phosphate [3] is under 1e-05 s⁻¹. In addition, in the data set with glucosamine-6-phosphate [4], the “self-cleavage kobs at 2500 uM GlcN6P” value is under 1e-05 s⁻¹.

With U45G G59U, in the data set with glucosamine-6-phosphate [1], the “self-cleavage kobs at 40 uM GlcN6P” value was under 1e-05 s⁻¹. The “self-cleavage kobs at 10000 uM GlcN6P” value in the data set with glucosamine-6-phosphate [5] was 4.05e-05 ± 1.2e-05 s⁻¹.

Take G44C U55G: the “self-cleavage kobs at 40 uM GlcN6P” value in the data set with glucosamine-6-phosphate [1] is under 1e-05 s⁻¹. In addition, the “self-cleavage kobs at 160 uM GlcN6P” value with glucosamine-6-phosphate [3] is under 1e-05 s⁻¹. In the data set with glucosamine-6-phosphate [4], the “self-cleavage kobs at 2500 uM GlcN6P” value turned out to be 5.66e-05 ± 2.2e-05 s⁻¹. In the data set with glucosamine-6-phosphate [5], the “self-cleavage kobs at 10000 uM GlcN6P” value stood at 4.43e-05 ± 2.1e-05 s⁻¹.

In the case of U45A C50U U54G, the “self-cleavage kobs at 40 uM GlcN6P” value in the data set with glucosamine-6-phosphate [1] is under 1e-05 s⁻¹.

With U46A G60C, in the data set with glucosamine-6-phosphate [1], the “self-cleavage kobs at 40 uM GlcN6P” value is under 1e-05 s⁻¹. Further, in the data set with glucosamine-6-phosphate [2], the “self-cleavage kobs at 640 uM GlcN6P” value is under 1e-05 s⁻¹. Also, in the data set with glucosamine-6-phosphate [3], the “self-cleavage kobs at 160 uM GlcN6P” value is under 1e-05 s⁻¹. The “self-cleavage kobs at 2500 uM GlcN6P” value with glucosamine-6-phosphate [4] was under 1e-05 s⁻¹. The “self-cleavage kobs at 10000 uM GlcN6P” value with glucosamine-6-phosphate [5] is under 1e-05 s⁻¹.

As to G44C G59U, the “self-cleavage kobs at 40 uM GlcN6P” value with glucosamine-6-phosphate [1] was under 1e-05 s⁻¹. Further, the “self-cleavage kobs at 640 uM GlcN6P” value in the data set with glucosamine-6-phosphate [2] is under 1e-05 s⁻¹. Further, the “self-cleavage kobs at 160 uM GlcN6P” value in the data set with glucosamine-6-phosphate [3] is under 1e-05 s⁻¹. Also, the “self-cleavage kobs at 2500 uM GlcN6P” value with glucosamine-6-phosphate [4] was under 1e-05 s⁻¹. Besides, the “self-cleavage kobs at 10000 uM GlcN6P” value with glucosamine-6-phosphate [5] was under 1e-05 s⁻¹.

In the case of G44C C50U C70G, the “self-cleavage kobs at 40 uM GlcN6P” value in the data set with glucosamine-6-phosphate [1] is under 1e-05 s⁻¹. Moreover, the “self-cleavage kobs at 640 uM GlcN6P” value with glucosamine-6-phosphate [2] is under 1e-05 s⁻¹.

On to U47G A64G C70G, for which the “self-cleavage kobs at 40 uM GlcN6P” value in the data set with glucosamine-6-phosphate [1] is under 1e-05 s⁻¹.

With A48G A52C, the “self-cleavage kobs at 40 uM GlcN6P” value in the data set with glucosamine-6-phosphate [1] was under 1e-05 s⁻¹. The “self-cleavage kobs at 640 uM GlcN6P” value with glucosamine-6-phosphate [2] is under 1e-05 s⁻¹. In addition, the “self-cleavage kobs at 160 uM GlcN6P” value with glucosamine-6-phosphate [3] is under 1e-05 s⁻¹.

Consider U45G G51C U56G, for which the “self-cleavage kobs at 40 uM GlcN6P” value with glucosamine-6-phosphate [1] is under 1e-05 s⁻¹. Also, in the data set with glucosamine-6-phosphate [2], the “self-cleavage kobs at 640 uM GlcN6P” value is under 1e-05 s⁻¹. The “self-cleavage kobs at 10000 uM GlcN6P” value with glucosamine-6-phosphate [5] is under 1e-05 s⁻¹.
